# Where “and” joins values, the source holds several entries; their conditions need not be identical. Equal values may be shown once. Among all 420,000 compounds or so, about 50,000 (12%) were called active. Inconclusive means that the source gave no clear call. Such entries were picked first, then a sample of the others. Calls come from the whole dose curve; as a rule, active = well fitted inhibition curve with a large enough effect; inconclusive = small, poorly fitted or top-dose-only effect; inactive = flat fitted curve, though single readings scatter. A potency beside an inconclusive call is a rough fit, not a confirmed value.
# Test: qHTS for Inhibitors of human tyrosyl-DNA phosphodiesterase 1 (TDP1): qHTS in cells in presence of CPT; note: nearly all actives have a fitted effect of over 55% in size
# Conditions: chicken DT40 Tdp1-/-;hTDP1 cells + 20 nM CPT, ATP luminescence, 48 h; activity change, negative = growth inhibition: at 46.2 µM (top of the series)
# Procedure, shortened: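 Cell growth measured by CellTiter-Glo luminescence after a minimum 48 h, 37 C compound exposure with 20 nM CPT in Tdp1-knockout DT40 cells stably expressing hTDP1, seeded 400/well; qHTS titration format.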
# % is set by controls: 0 for no effect and ±100 for the full control effect; potency is the fitted concentration of half-maximal effect; tags give direction and shape of the fitted curve.
SMILES,Potency,"activity change, negative = growth inhibition"
COc1cc(NC(=O)c2cc(C)on2)cc(C(=O)Nc2cccc(C(F)(F)F)c2)c1,"inconclusive: 29.1 µM [inhibitor, single point] and inconclusive: 18.4 µM [inhibitor, single point]",–
CCCCCCCCCCn1cc(C(C)=O)c(=O)[nH]c1=O,–,inactive: -8.67%
COc1cccc(-c2cn3c(n2)sc2cc(C(=O)NCc4ccccc4F)ccc23)c1,"inconclusive: 23.1 µM [inhibitor, single point]",–
COc1ccc2c(c1)CCN=C2Cc1ccc(OC)c(OC)c1,"inconclusive: 14.6 µM [inhibitor, partial curve]",–
COc1cc(C2Nc3cccc4cccc(c34)N2)ccc1O,"inconclusive: 29.1 µM [inhibitor, single point]",–
Cc1ccc(SCC(=O)NC2CC3CCC(C2)N3C)cc1 (centres undefined),"inconclusive: 4.61 µM [inhibitor, single point]",–
O=C(CSc1nc2ccccc2[nH]1)N1c2ccccc2Sc2ccccc21,–,inconclusive: -23.9% [inhibitor]
O=C(NCC(c1cccnc1)N1CCOCC1)C(=O)Nc1ccc(Cl)cc1 (centres undefined),"inconclusive: 29.1 µM [inhibitor, single point]",–
O=C(Oc1ccc(N(Cc2cccs2)C2=NS(=O)(=O)c3ccccc32)cc1)c1ccc(Cl)cc1,"inconclusive: 18.4 µM [inhibitor, single point]",–
CCOC(=O)c1nc(C)c(C(C)=O)s1,–,inactive: -8.1%
O=C(c1cc([N+](=O)[O-])cc([N+](=O)[O-])c1)N(Cc1nnc(-c2ccccc2Cl)o1)C1CC1,"inconclusive: 5.8 µM [inhibitor, partial curve]",–
O=C(Nc1nnc(-c2ccco2)o1)c1ccc(Cl)cc1,"inconclusive: 16.4 µM [inhibitor, single point]",–
Nc1ccc(/C=C/c2nc3ccccc3s2)cc1,active: 11.2 µM,–
CCOC(=O)c1c(C)oc2nc(C)nc(NCC3CCN(Cc4ccccc4C)CC3)c12,–,inactive: -11.1%
Cc1ccc2nc(-c3cccc(NC(=O)c4cccc5c(Cl)cccc45)c3)oc2c1,"inconclusive: 29.1 µM [inhibitor, single point]",–
O=C(/C=C/c1cccc([N+](=O)[O-])c1)NCCN1C(=O)S/C(=C\c2cccnc2)C1=O,"inconclusive: 29.1 µM [inhibitor, single point]",–
CCN(Cc1ccccc1)C(=O)CCS(=O)(=O)c1ccc2c(c1)CCN2C(C)=O,"inconclusive: 23.1 µM [inhibitor, single point]",–
COC(=O)c1ccc(N2CCN(C)CC2)c(NC(=O)COc2ccccc2Cl)c1,active: 20.6 µM,–
CCOC(=O)C1(Cc2ccccc2C)CCCN(C(=O)c2ccc(COC)o2)C1 (centres undefined),"inconclusive: 29.1 µM [inhibitor, single point]",–
CCN(CC)CCN(C(=O)CCS(=O)(=O)c1ccccc1)c1nc2cc(C)cc(C)c2s1,active: 20.6 µM,–
COc1ccc(-c2nc3c4ccccc4ccn3c2Cc2ccccc2C(F)(F)F)cc1OC,"inconclusive: 18.4 µM [inhibitor, single point]",–
O=C(CSc1ccc(-c2ccccc2)nn1)NC1CCCC1,–,inconclusive: -35.2% [inhibitor]
O=C(NC1CCCCC1)c1ccc2c(c1)N(Cc1cccc(Cl)c1)C(=O)c1ccccc1S2=O (centres undefined),"inconclusive: 16.4 µM [inhibitor, partial curve]",–

SMILES,Potency,"activity change, negative = growth inhibition"
COc1c(C)cccc1C(=O)Nc1cc(-c2nn3c(C)nnc3s2)ccc1C,"inconclusive: 18.4 µM [inhibitor, single point]",–
COc1ccc(NC(=S)NCCc2ccccc2OC)c(OC)c1,"inconclusive: 25.9 µM [inhibitor, single point]",–
COc1ccc(CN2CCCC(c3nc(C)ncc3-c3ccc(F)cc3)C2)c(OC)c1OC (centres undefined),active: 11.6 µM,–
Cn1c(O)c(N=NC(=O)c2ccco2)c2ccccc21,–,inactive: -0.277%
COC(=O)C1=C(C)N(CC2CC2)C(=NCCN2CCOCC2)N[C@H]1c1ccccc1,"inconclusive: 20.6 µM [inhibitor, partial curve]",–
COc1ccc(C(=O)N2CCCC(C(N)=O)C2)cc1S(=O)(=O)N1CCOCC1 (centres undefined),–,inactive: -2.52%
COC(=O)[C@@H](NC(=O)NCc1ccccc1Cl)C(C)C,–,inactive: -12.6%
COc1cc(C(=O)NC2(C(F)(F)F)NC(=O)N(CCCc3ccccc3)C2=O)cc(OC)c1OC (centres undefined),"inconclusive: 14.6 µM [inhibitor, single point]",–
O=S1(=O)C=C(N2CCOCC2)c2ccccc21,"inconclusive: 0.82 µM [inhibitor, full curve, poor fit]",–
Cc1c(C(c2cc(O)ccc2O)c2c(C)n(C)n(-c3ccccc3)c2=O)c(=O)n(-c2ccccc2)n1C,–,inactive: -2.17%
Cc1nc2ccccc2n1/C(=N\S(=O)(=O)c1ccccc1)c1ccccc1,–,inactive: -13.2%
CN(CC(=O)Nc1ccc(F)cc1)CC(=O)Nc1ccc(Cl)c(S(=O)(=O)N2CCOCC2)c1,"inconclusive: 16.4 µM [inhibitor, single point]",–
CCc1ccc(NC(=O)C2CCN(S(=O)(=O)c3ccc4c(c3)NC(=O)C(C)S4)CC2)cc1 (centres undefined),active: 18.4 µM,–
COc1ccc(O)c(C(=O)c2cnc3c(c2)c(-c2ccc(F)cc2)c(C#N)c(=O)n3C)c1,–,inactive: -34.5%
Cc1cc(C(=O)Nc2sc3c(c2C#N)CCCC3)no1,"inconclusive: 16.4 µM [inhibitor, single point]",–
CCc1nc2ccccc2n1Cc1ccccc1F,"inconclusive: 29.1 µM [inhibitor, single point]",–
O=C(NC1CCCCC1)c1ccc(Br)o1,–,inactive: -8.12%
COc1ccc(CN2CCN(S(=O)(=O)c3ccc(NC(C)=O)cc3)CC2)c(OC)c1OC,active: 16.4 µM,–
CCc1ccc(-c2nc(CSCC(=O)NCc3ccc(C)cc3)c(C)o2)cc1,"inconclusive: 20.6 µM [inhibitor, single point]",–
COc1ccc(CCN2CN(S(=O)(=O)c3ccccc3)c3nc4ccccc4nc32)cc1,"inconclusive: 29.1 µM [inhibitor, single point]",–
CCOC(=O)N1CCN(C(=O)C(CC)n2nc(C)c3sc4ccccc4c3c2=O)CC1 (centres undefined),"inconclusive: 25.9 µM [inhibitor, single point]",–
CCOc1ccc(CCNC(=O)Cn2c(C)c3cnn(-c4ccccc4)c(=O)c3c2C)cc1,–,inactive: -14.1%
COC(=O)C1=CN(c2ccc(C(C)(C)C)cc2)C(N)=C(C#N)C1c1ccccc1F (centres undefined),"inconclusive: 20.6 µM [inhibitor, single point]",–

SMILES,Potency,"activity change, negative = growth inhibition"
O=C(c1ccc(S(=O)(=O)N2CCOCC2)cc1)N(c1cccc(Cl)c1)C1C=CS(=O)(=O)C1 (centres undefined),–,inactive: 2.82%
CCCCCCSc1ccc(-c2nc3ccccn3c2NCCCC)cc1,active: 23.1 µM,–
CCOc1ncccc1C(=O)Nc1cccc(C(=O)Nc2cccc(S(=O)(=O)CCO)c2)c1,"inconclusive: 23.1 µM [inhibitor, single point]",–
O=C(NCc1ccco1)c1ccc2c(c1)N(Cc1cccc(Cl)c1)C(=O)c1ccccc1S2=O (centres undefined),"inconclusive: 18.4 µM [inhibitor, single point]",–
CCOC(=O)/C(C#N)=C/c1c(N2CCN(c3ccccc3)CC2)nc2c(C)cccn2c1=O,"inconclusive: 20.6 µM [inhibitor, single point]",–
COC(=O)CN1C(=O)[C@H]2[C@@H](/C=C/c3ccccc3)N3C(=O)CN(CC4CC4)C(=O)[C@@]3(Cc3ccccc3)[C@H]2C1=O,"inconclusive: 18.4 µM [inhibitor, single point]",–
FCCCOc1ccc(-c2nccc(-c3ccccn3)n2)cc1,–,inactive: -19.8%
CCOc1ccc(/C=N/n2c(C3CCCCC3)n[nH]c2=S)cc1,"inconclusive: 20.6 µM [inhibitor, single point]",–
Cc1cc(C(=O)c2ccccc2)c(NC(=O)CN2CCOCC2)s1,–,inactive: -19.1%
Cc1nnc(C)n1/N=C/c1ccc(-c2ccccc2)cc1,–,inactive: -16.6%
OCCN1CCN(Cc2cc(Cl)c3cccnc3c2O)CC1,"inconclusive: 18.4 µM [inhibitor, single point]",–
CCc1c(CN2CCN(c3cccc(C)c3)C(C)C2)csc1C (centres undefined),–,inconclusive: -36.2% [inhibitor]
COc1ccc(-c2nc3c(c(=O)c4ccccc4n3C)c(=O)n2Cc2ccccc2)cc1,–,inactive: -23.8%
Cc1cccc2cc(CN(Cc3nnnn3C3CCCC3)C3CCCCC3)c(=O)[nH]c12,active: 20.6 µM,–
N#CCCn1c(SCC(=O)c2c[nH]c3ccccc23)nc2ccccc21,active: 23.1 µM,–
O=C(NCc1ccccc1)c1ccc(CS(=O)(=O)c2ccccc2)o1,active: 2.59 µM,–
CCN(CC(=O)NCc1ccc(Cl)cc1)C(=O)c1ccc(C#N)cc1,active: 20.6 µM,–
CCc1ccc(NC(=O)CC2C(=O)N(c3ccc(Cl)cc3)C(=O)N2C2CCCC2)cc1 (centres undefined),"inconclusive: 29.1 µM [inhibitor, single point]",–
Cc1ccc2cc(C#N)c(N3CCCN(C(=O)c4cnccn4)CC3)nc2c1,"inconclusive: 29.1 µM [inhibitor, single point]",–
O=C(NC(=S)Nc1ccccc1N1CCCCC1)c1ccc(-c2cccc([N+](=O)[O-])c2)o1,"inconclusive: 29.1 µM [inhibitor, single point]",–
CCOc1ccccc1CN1CCN(CCCc2ccccc2)CC1CCO (centres undefined),"inconclusive: 29.1 µM [inhibitor, single point]",–
OC[C@@H]1CN(CCNc2ccccc2)C[C@H](n2cnc3c(NCc4ccncc4)ncnc32)O1,–,inactive: -25.7%
O=C(Nc1ccc(N2CCN(C(=O)c3ccc(Cl)cc3)CC2)cc1)c1cccnc1,"inconclusive: 20.6 µM [inhibitor, single point]",–

# Source: PubChem BioAssay AID686979 (National Center for Advancing Translational Sciences (NCATS), 2013)
